The text below walks through data of PMC4336329 (PLoS ONE, 2015).

Screen size: about 310,000 compounds; about 2,200 (0.71%) showed an effect of 50% or more. The effect is printed as a negative number. This is one part of the list.

Sequence of human ether-à-go-go-related gene (hERG) potassium channel (Q12809 whole entry, looked up): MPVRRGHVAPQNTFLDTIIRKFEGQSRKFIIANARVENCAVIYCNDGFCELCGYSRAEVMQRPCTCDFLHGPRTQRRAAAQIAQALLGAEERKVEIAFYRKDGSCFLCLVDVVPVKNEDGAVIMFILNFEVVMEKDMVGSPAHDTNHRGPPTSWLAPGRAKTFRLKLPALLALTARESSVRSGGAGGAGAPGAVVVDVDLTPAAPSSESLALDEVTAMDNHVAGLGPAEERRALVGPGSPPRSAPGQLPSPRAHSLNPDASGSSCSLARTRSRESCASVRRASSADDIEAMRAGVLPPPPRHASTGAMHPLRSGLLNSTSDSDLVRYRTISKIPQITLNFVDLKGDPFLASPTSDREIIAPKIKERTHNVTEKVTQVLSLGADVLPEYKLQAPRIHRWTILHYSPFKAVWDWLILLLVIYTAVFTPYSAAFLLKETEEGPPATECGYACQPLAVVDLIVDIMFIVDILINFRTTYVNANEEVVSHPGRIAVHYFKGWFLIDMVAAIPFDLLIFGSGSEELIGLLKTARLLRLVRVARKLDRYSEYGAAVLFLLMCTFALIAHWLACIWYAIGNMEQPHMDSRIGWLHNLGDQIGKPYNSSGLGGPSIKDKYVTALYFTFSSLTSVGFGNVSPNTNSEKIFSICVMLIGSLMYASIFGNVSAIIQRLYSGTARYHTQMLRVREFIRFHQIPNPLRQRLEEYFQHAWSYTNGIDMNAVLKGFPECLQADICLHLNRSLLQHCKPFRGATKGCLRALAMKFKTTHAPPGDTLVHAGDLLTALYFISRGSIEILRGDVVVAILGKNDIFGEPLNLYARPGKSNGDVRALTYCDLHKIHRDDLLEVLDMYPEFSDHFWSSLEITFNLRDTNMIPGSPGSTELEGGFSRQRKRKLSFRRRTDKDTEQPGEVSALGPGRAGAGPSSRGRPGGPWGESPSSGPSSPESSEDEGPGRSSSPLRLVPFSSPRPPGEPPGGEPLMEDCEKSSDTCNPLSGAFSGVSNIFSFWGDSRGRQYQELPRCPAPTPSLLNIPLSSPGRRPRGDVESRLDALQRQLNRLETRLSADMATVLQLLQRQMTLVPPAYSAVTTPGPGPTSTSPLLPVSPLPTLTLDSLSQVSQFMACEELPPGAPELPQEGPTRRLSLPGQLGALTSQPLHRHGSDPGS

The test concerns the target human ether-à-go-go-related gene (hERG) potassium channel (human, UniProt Q12809). As to the kind of experiment: primary screen, population patch clamp on CHO cells stably expressing hERG.
Take `CCc1nnc(NC(=O)CSc2nnc3c(n2)[nH]c2ccccc23)s1`: the “hERG current change (%, negative = inhibition) at 1uM” value came to 0.844%.

Regarding `C=CCN(CC=C)Cc1c(O)ccc2c(=O)c(-c3ccccc3)coc12`, the “hERG current change (%, negative = inhibition) at 1uM” value turned out to be 4.8%.

As for `COc1ccc(-c2noc(CSc3nc(-c4ccccc4)cc(=O)[nH]3)n2)cc1`, the “hERG current change (%, negative = inhibition) at 1uM” value is listed as 8.15%.

Take `Cc1cc(NS(=O)(=O)c2ccc(NC(=O)/C=C/c3ccccc3Cl)cc2)no1`: the “hERG current change (%, negative = inhibition) at 1uM” value stood at 14.4%.

For `COc1ccc(S(=O)(=O)N2CCN(CC(=O)Nc3cccc(OC)c3)CC2)cc1`, the “hERG current change (%, negative = inhibition) at 1uM” value is on record as -4.12%.

`CC(C)(C)NC(=O)c1c(F)c(F)c(F)c(F)c1F`: the “hERG current change (%, negative = inhibition) at 1uM” value is 4.34%.

For the compound `COc1ccc(/C=N/n2c(=O)[nH]c3c([nH]c4ccc(Cl)cc43)c2=O)cc1CN1CCCCC1`, the “hERG current change (%, negative = inhibition) at 1uM” value is listed as 14%.

On to `O=C(Cn1cnc2ccccc21)Nc1cccc(S(=O)(=O)N2CCCC2)c1`, for which the “hERG current change (%, negative = inhibition) at 1uM” value is 7.93%.

In the case of `CCn1c(=O)cc(OCC(=O)NCCCN2CCC(C)CC2)c2ccccc21`, the “hERG current change (%, negative = inhibition) at 1uM” value is listed as -1.7%.

Consider `CCCCCCCCN[C@H](C)[C@@H](O)c1ccc(SC(C)C)cc1`, for which the “hERG current change (%, negative = inhibition) at 1uM” value worked out at 4.1%.

Regarding `COc1ccc(N(C(=O)c2ccc(Cl)cc2)C2=CC3CCC(C2)N3C)cc1.Cl` (centres unmarked), the “hERG current change (%, negative = inhibition) at 1uM” value is reported as -76.1%.

In the case of `O=C(Nc1ccc(F)cc1)c1ccc(COc2ccccc2)cc1`, the “hERG current change (%, negative = inhibition) at 1uM” value was -8.32%.

`COc1ccc(NC(=O)N2CCCC2C(=O)Nc2ccccc2F)cc1` (centres unmarked): the “hERG current change (%, negative = inhibition) at 1uM” value stood at 8.75%.

`CCOc1ccccc1C(=O)NC(C(=O)Nc1ccccc1N1CCOCC1)C(C)C` (centres unmarked): the “hERG current change (%, negative = inhibition) at 1uM” value is given as -9.37%.

With `CC(=O)Nc1ccccc1NC(=O)C/C(C)=N/NC(=O)c1cccnc1`, the “hERG current change (%, negative = inhibition) at 1uM” value was 10.9%.

For the compound `CCC(CC)c1nnc(NC(=O)/C=C/c2ccco2)s1`, the “hERG current change (%, negative = inhibition) at 1uM” value is listed as 5.49%.

On to `Cc1ccc(C(=O)OCC(=O)N(CCc2ccccc2)Cc2ccccc2)cc1S(=O)(=O)N1CCOCC1`, for which the “hERG current change (%, negative = inhibition) at 1uM” value is listed as -2.03%.

For the compound `Cc1c(C)n(Cc2ccc(F)cc2)c2ccc(C(=O)N3CCN(c4ccccn4)CC3)cc12`, the “hERG current change (%, negative = inhibition) at 1uM” value was 14.6%.

On to `CCN1CCN(C(=O)CSc2cc(=O)n(C)c3ccccc23)CC1`, for which the “hERG current change (%, negative = inhibition) at 1uM” value was determined as 6.43%.

`C=CCN1C(=O)C2(C(C(=O)OCC)=C(N)Oc3ccccc32)c2c1c1ccccc1oc2=O` (centres unmarked): the “hERG current change (%, negative = inhibition) at 1uM” value came out at 6.92%.

Regarding `CCS(=O)(=O)Nc1ccc(C(=O)CC2(O)C(=O)Nc3ccccc32)cc1` (centres unmarked), the “hERG current change (%, negative = inhibition) at 1uM” value turned out to be 4.37%.

As to `COCC(=O)Nc1cc([N+](=O)[O-])ccc1C`, the “hERG current change (%, negative = inhibition) at 1uM” value worked out at 10.9%.

On to `N#Cc1ccc(Oc2ncccn2)cc1`, for which the “hERG current change (%, negative = inhibition) at 1uM” value amounted to 12.1%.

As for `O=C1OC(c2ccco2)=N/C1=C\c1ccc(-c2cccc(C(F)(F)F)c2)o1`, the “hERG current change (%, negative = inhibition) at 1uM” value amounted to 11.7%.

Turning to `CN(C)CCCN(C(=O)c1ccc(C(=O)c2ccccc2)cc1)c1nc2cc3c(cc2s1)OCCO3.Cl`, the “hERG current change (%, negative = inhibition) at 1uM” value is -7.91%.

For the compound `Cn1cnc2cc(NC(=O)c3cccs3)ccc21`, the “hERG current change (%, negative = inhibition) at 1uM” value is 1.38%.

As for `Cc1sc2c(c1C)CN(C1CC(C)(C)NC(C)(C)C1)CN2C(=O)c1ccco1`, the “hERG current change (%, negative = inhibition) at 1uM” value is -4.73%.

On to `Cc1nc(SCC(=O)NCC2CCCO2)c2oc3ccccc3c2n1` (centres unmarked), for which the “hERG current change (%, negative = inhibition) at 1uM” value is 14.4%.

`COCCN(C(C)=O)c1nnc(-c2ccccn2)s1`: the “hERG current change (%, negative = inhibition) at 1uM” value came out at 7.71%.

With `CNC(=S)NNC(=O)c1ccc(=O)n(Cc2ccc(Cl)cc2Cl)c1`, the “hERG current change (%, negative = inhibition) at 1uM” value was found to be 29%.

Regarding `O=C(O)c1cccc(COc2ccc3c(c2)CCC3)c1`, the “hERG current change (%, negative = inhibition) at 1uM” value is on record as 12.9%.

Take `Cc1ccc(F)c([C@H]2[C@@H]3C=CCC[C@@]3(C)C(=O)N2Cc2ccccc2)c1`: the “hERG current change (%, negative = inhibition) at 1uM” value was found to be 10.3%.

As to `COc1ccc(NC(=O)CCn2cccc2)c(OC)c1`, the “hERG current change (%, negative = inhibition) at 1uM” value was determined as 14.8%.

As for `Cc1ccc(C(=O)Nc2nnc(Cc3ccccc3)s2)cc1`, the “hERG current change (%, negative = inhibition) at 1uM” value was 5.85%.

Take `C=C(C)C(=O)OCC(=O)NCc1ccccc1`: the “hERG current change (%, negative = inhibition) at 1uM” value is 8.64%.

Take `CCOc1cccc2sc(Nc3nc4ccc(NC(C)=O)cc4s3)nc12`: the “hERG current change (%, negative = inhibition) at 1uM” value is on record as 3.37%.

Take `O=C(c1ccc(N2C(=O)C3CC=C(Cl)CC3C2=O)cc1)N1CCCCC1` (centres unmarked): the “hERG current change (%, negative = inhibition) at 1uM” value came to 7.79%.

As for `COc1ccccc1CC(=O)Nc1cc(OC)c(NC(=O)c2ccccc2)cc1OC`, the “hERG current change (%, negative = inhibition) at 1uM” value was determined as 14.1%.

With `CCCn1c(N)cc(=O)n(CCC)c1=O`, the “hERG current change (%, negative = inhibition) at 1uM” value is recorded as 17.5%.

For the compound `Cc1ccc(S(=O)(=O)NCCOC(=O)Nc2sc(=S)n(C)c2C)cc1`, the “hERG current change (%, negative = inhibition) at 1uM” value is reported as 14.1%.

With `CN(/N=C/c1ccccc1Cl)c1ncc(Cl)cc1C(F)(F)F`, the “hERG current change (%, negative = inhibition) at 1uM” value was determined as 10.3%.

As to `CSc1n[nH]c(NCc2cccs2)n1`, the “hERG current change (%, negative = inhibition) at 1uM” value came out at 12.5%.

With `O=S(=O)(c1ccc(Cl)cc1)c1snnc1-c1ccccc1`, the “hERG current change (%, negative = inhibition) at 1uM” value was determined as 7.45%.

In the case of `COC(=O)CSc1nc(Cc2ccccc2)nc2ccccc12`, the “hERG current change (%, negative = inhibition) at 1uM” value is given as 11.6%.

For `Nc1nnc(SCc2ccccc2Cl)s1`, the “hERG current change (%, negative = inhibition) at 1uM” value is on record as 8.75%.

As for `CN(C)CCN(Cc1ccccc1)S(=O)(=O)c1ccc(-c2ccc(=O)[nH]n2)s1`, the “hERG current change (%, negative = inhibition) at 1uM” value is on record as -23.8%.

For the compound `CCC(=O)NC(NC(=S)Nc1ccc(S(N)(=O)=O)cc1)C(Cl)(Cl)Cl` (centres unmarked), the “hERG current change (%, negative = inhibition) at 1uM” value is listed as -0.792%.

Consider `C=CCOC(=O)C1=C[C@H](c2ccc(Br)cc2)C[C@H](OCc2ccc(CO)cc2)O1`, for which the “hERG current change (%, negative = inhibition) at 1uM” value is listed as 18.4%.

Turning to `O=C(COc1ccc(Br)cc1)Nc1ccc(C(=O)Nc2ccccc2C(=O)O)cc1`, the “hERG current change (%, negative = inhibition) at 1uM” value is given as 3.84%.

With `CC(=O)NS(=O)(=O)c1ccc(NC(=O)c2cccc3ccccc23)cc1`, the “hERG current change (%, negative = inhibition) at 1uM” value is given as 16.5%.

As to `O=C(c1ccc(NS(=O)(=O)c2ccccc2)cc1)N1CCOCC1`, the “hERG current change (%, negative = inhibition) at 1uM” value is 16.5%.

Consider `S=C(Nc1ccc(N2CCOCC2)cc1)Nc1ccc2snnc2c1`, for which the “hERG current change (%, negative = inhibition) at 1uM” value is 3.86%.

For the compound `COc1cccc(N(C(=O)Cn2nnc(-c3ccc(C)cc3)n2)C(C(=O)NC(C)(C)C)c2c[nH]c3ccccc23)c1` (centres unmarked), the “hERG current change (%, negative = inhibition) at 1uM” value is 5.18%.

Consider `CC(=O)Nc1ccc(/C=C(\C#N)C(N)=O)cc1`, for which the “hERG current change (%, negative = inhibition) at 1uM” value is reported as 12.4%.

Take `CCC(=O)NCCc1nc2cc(NC(=O)c3ccc(F)cc3)ccc2n1C`: the “hERG current change (%, negative = inhibition) at 1uM” value came out at 11.7%.

As to `CCN(CC)CCN(C(=O)c1ccc2c(c1)CCCC2)c1nc2c(C)cccc2s1.Cl`, the “hERG current change (%, negative = inhibition) at 1uM” value was 9.42%.
